Test results as given in paper PMC10668032.
The other results are listed elsewhere or left out. At the low end of the ranking the order means little.

These sequences were tested against SIX1-Q177R homeodomain (UniProt Q15475) (assay: universal protein binding microarray). Conditions: Universal all-10-mer PBM (8x60K, AMADID 030236), 300 nM GST-tagged protein, Alexa Fluor 488 anti-GST; buffer, salt, pH and temperature not stated; high values mean tight binding; most listed sequences are background and not binding sites; double strand, one strand shown.

**Q.** For CGGCCTAG, which binding signal is on record?
**A.** Its binding signal is -0.24 E-score.

**Q.** With CGAGTCAA as the sequence, how does the binding signal read?
**A.** Its binding signal is 0.11 E-score.

**Q.** For CCGGGAGA, which binding signal is on record?
**A.** The binding signal was -0.00114 E-score.

**Q.** How did the binding signal turn out when GGTCCGCA was run?
**A.** Its binding signal is -0.00696 E-score.

**Q.** With AACAGTGA as the sequence, how does the binding signal read?
**A.** Its binding signal is -0.0313 E-score.

**Q.** How did the binding signal turn out when CAGTTCGA was run?
**A.** Its binding signal is 0.106 E-score.

**Q.** Which binding signal does the source give for ATCAGCTG here?
**A.** Its binding signal is -0.079 E-score.

**Q.** ACCTAGCT was tested. Which binding signal did it give?
**A.** The binding signal was 0.111 E-score.

**Q.** For CACAGGTA, which binding signal is on record?
**A.** Its binding signal is 0.104 E-score.

**Q.** CGCCAACC was tested. Which binding signal did it give?
**A.** The binding signal was -0.00498 E-score.

**Q.** For GACTGGCC, which binding signal is on record?
**A.** The binding signal was -0.349 E-score.

**Q.** With AATGGCAC as the sequence, how does the binding signal read?
**A.** The binding signal was -0.0128 E-score.

**Q.** Which binding signal does the source give for TATGTGAA here?
**A.** Its binding signal is -0.145 E-score.

**Q.** For ACAAGGTA, which binding signal is on record?
**A.** The binding signal was -0.0204 E-score.

**Q.** For AATCCAAG, which binding signal is on record?
**A.** Its binding signal is -0.0903 E-score.

**Q.** Which binding signal does the source give for CGGACAAG here?
**A.** Its binding signal is -0.073 E-score.

**Q.** Which binding signal does the source give for CCTGAAAG here?
**A.** The binding signal was -0.0646 E-score.

**Q.** Which binding signal does the source give for GCTCGTCC here?
**A.** The binding signal was -0.0703 E-score.

**Q.** Which binding signal does the source give for CCTTTGAC here?
**A.** Its binding signal is 0.00515 E-score.

**Q.** For AGGGAGGC, which binding signal is on record?
**A.** The binding signal was -0.155 E-score.

**Q.** GAGGCACC was tested. Which binding signal did it give?
**A.** The binding signal was -0.0594 E-score.

**Q.** Which binding signal does the source give for CTTGCCCC here?
**A.** Its binding signal is -0.0502 E-score.

**Q.** Which binding signal does the source give for ACTCCTAC here?
**A.** The binding signal was 0.112 E-score.

**Q.** How did the binding signal turn out when AACTGCTC was run?
**A.** Its binding signal is -0.0213 E-score.

**Q.** With ACGGAATA as the sequence, how does the binding signal read?
**A.** Its binding signal is 0.046 E-score.

**Q.** Which binding signal does the source give for GAAAGCCA here?
**A.** Its binding signal is -0.27 E-score.

**Q.** CCGACACC was tested. Which binding signal did it give?
**A.** Its binding signal is 0.488 E-score.

**Q.** How did the binding signal turn out when CCGCGATC was run?
**A.** Its binding signal is 0.081 E-score.

**Q.** With TAAGCCGA as the sequence, how does the binding signal read?
**A.** The binding signal was -0.243 E-score.

**Q.** With CAGGGCTA as the sequence, how does the binding signal read?
**A.** Its binding signal is 0.00664 E-score.

**Q.** For CGGGTACC, which binding signal is on record?
**A.** The binding signal was 0.16 E-score.

**Q.** How did the binding signal turn out when ACAATCAG was run?
**A.** The binding signal was -0.0314 E-score.

**Q.** How did the binding signal turn out when CGAGTATC was run?
**A.** The binding signal was 0.158 E-score.

**Q.** With CTATCGTC as the sequence, how does the binding signal read?
**A.** Its binding signal is -0.0769 E-score.

**Q.** With ATTATATA as the sequence, how does the binding signal read?
**A.** Its binding signal is -0.0523 E-score.

**Q.** ACGCAACG was tested. Which binding signal did it give?
**A.** Its binding signal is 0.0798 E-score.

**Q.** How did the binding signal turn out when TGCTTTAA was run?
**A.** The binding signal was -0.0642 E-score.

**Q.** With GGCCTGAC as the sequence, how does the binding signal read?
**A.** Its binding signal is -0.0129 E-score.

**Q.** With ACACGCTG as the sequence, how does the binding signal read?
**A.** The binding signal was 0.389 E-score.

**Q.** With CTATACAA as the sequence, how does the binding signal read?
**A.** Its binding signal is -0.0949 E-score.

**Q.** Which binding signal does the source give for AATCGCCG here?
**A.** The binding signal was 0.0517 E-score.

**Q.** With GACCAATA as the sequence, how does the binding signal read?
**A.** Its binding signal is 0.00786 E-score.

**Q.** TTGTTAAA was tested. Which binding signal did it give?
**A.** The binding signal was -0.148 E-score.

**Q.** Which binding signal does the source give for ACCGTAAC here?
**A.** Its binding signal is -0.036 E-score.

**Q.** How did the binding signal turn out when ACGGATGA was run?
**A.** Its binding signal is 0.0644 E-score.

**Q.** For AACGCTGA, which binding signal is on record?
**A.** Its binding signal is -0.197 E-score.

**Q.** For AAAACAAC, which binding signal is on record?
**A.** Its binding signal is -0.179 E-score.

**Q.** How did the binding signal turn out when AATAGTTA was run?
**A.** Its binding signal is -0.239 E-score.

**Q.** For AATATGGA, which binding signal is on record?
**A.** Its binding signal is 0.0496 E-score.

**Q.** ATGTTCAG was tested. Which binding signal did it give?
**A.** The binding signal was -0.0871 E-score.

**Q.** Which binding signal does the source give for ACTCCACA here?
**A.** Its binding signal is 0.206 E-score.

**Q.** ATCTAGTA was tested. Which binding signal did it give?
**A.** The binding signal was -0.176 E-score.

**Q.** With CAGTTCGG as the sequence, how does the binding signal read?
**A.** Its binding signal is -0.0965 E-score.

**Q.** CCCGTGAA was tested. Which binding signal did it give?
**A.** The binding signal was -0.136 E-score.

**Q.** How did the binding signal turn out when AAGGATAA was run?
**A.** The binding signal was 0.0209 E-score.

**Q.** Which binding signal does the source give for CGATGCCG here?
**A.** Its binding signal is -0.164 E-score.

**Q.** With CCACGTAG as the sequence, how does the binding signal read?
**A.** The binding signal was -0.255 E-score.

**Q.** ACCTTCCG was tested. Which binding signal did it give?
**A.** The binding signal was 0.0859 E-score.

**Q.** Which binding signal does the source give for ATCAAGTC here?
**A.** Its binding signal is -0.1 E-score.

**Q.** With CTAGTCAC as the sequence, how does the binding signal read?
**A.** Its binding signal is 0.19 E-score.

**Q.** For AACTCGCC, which binding signal is on record?
**A.** Its binding signal is 0.0208 E-score.

**Q.** CGTTATTC was tested. Which binding signal did it give?
**A.** The binding signal was -0.117 E-score.

**Q.** How did the binding signal turn out when ATCTACGA was run?
**A.** Its binding signal is -0.0518 E-score.

**Q.** For CCAATACG, which binding signal is on record?
**A.** The binding signal was -0.0027 E-score.

**Q.** CTCGACCC was tested. Which binding signal did it give?
**A.** The binding signal was 0.182 E-score.

**Q.** With AGATCCTC as the sequence, how does the binding signal read?
**A.** Its binding signal is -0.121 E-score.

**Q.** With TATAGTGA as the sequence, how does the binding signal read?
**A.** The binding signal was 0.0497 E-score.

**Q.** With CGCCAACG as the sequence, how does the binding signal read?
**A.** The binding signal was -0.176 E-score.

**Q.** For TCGATGAA, which binding signal is on record?
**A.** Its binding signal is -0.0239 E-score.

**Q.** With CGTTCAGC as the sequence, how does the binding signal read?
**A.** The binding signal was -0.0699 E-score.

**Q.** With CGATCTTA as the sequence, how does the binding signal read?
**A.** Its binding signal is -0.0073 E-score.

**Q.** How did the binding signal turn out when ACGTAAAA was run?
**A.** The binding signal was -0.213 E-score.

**Q.** For CTGGCAAG, which binding signal is on record?
**A.** Its binding signal is -0.262 E-score.

**Q.** With AGATCATC as the sequence, how does the binding signal read?
**A.** Its binding signal is 0.0817 E-score.

**Q.** Which binding signal does the source give for AACGGCAC here?
**A.** The binding signal was 0.0138 E-score.

**Q.** AGCCGCTC was tested. Which binding signal did it give?
**A.** The binding signal was -0.028 E-score.

**Q.** For CGCTCGAA, which binding signal is on record?
**A.** The binding signal was -0.208 E-score.

**Q.** GATCCGAA was tested. Which binding signal did it give?
**A.** The binding signal was 0.00303 E-score.

**Q.** With AAGCACCC as the sequence, how does the binding signal read?
**A.** The binding signal was 0.244 E-score.

**Q.** How did the binding signal turn out when AGAGTTTA was run?
**A.** The binding signal was -0.0605 E-score.

**Q.** CTAATCGA was tested. Which binding signal did it give?
**A.** The binding signal was -0.144 E-score.

**Q.** With AACTACCC as the sequence, how does the binding signal read?
**A.** The binding signal was 0.151 E-score.

**Q.** Which binding signal does the source give for TCAATACA here?
**A.** The binding signal was 0.212 E-score.

**Q.** For ACAGAACT, which binding signal is on record?
**A.** The binding signal was -0.168 E-score.

**Q.** Which binding signal does the source give for GCCGAGTA here?
**A.** Its binding signal is -0.0605 E-score.

**Q.** How did the binding signal turn out when ATGCTACC was run?
**A.** Its binding signal is 0.0295 E-score.
